Assay results as given in patent US7432350B2 (priority 2002, dated 2008).

Target: S. cerevisiae ACCase BC domain (pCS16) (Saccharomyces cerevisiae, UniProt Q00955)
Source text: Soraphen binding assay. […] Like pCS8, both of these constructs express their respective BC domains as N-terminal-His-tagged fusion proteins to facilitate purification. […] Therefore, pCS16M protein would be an excellent counter-selection agent to eliminate non-soraphen-binding-site interactions.

CO[C@H]1CCCC[C@@H](c2ccccc2)OC(=O)[C@@H](C)[C@@]2(O)O[C@H]([C@@H](C)[C@H](O)[C@H]2OC)[C@@H](C)/C=C/[C@H]1OC [soraphen A] was tested, and the “soraphen binding to pCS16 protein” value was “high-affinity”.
